# Data taken from PubChem BioAssay AID1347165 (National Center for Advancing Translational Sciences (NCATS), 2019).
# Out of some 220,000 compounds screened, about 5,700 (2.6%) were called active. This list was built around the results that the source calls inconclusive (neither active nor inactive); the mix of calls is not that of the screen. Calls follow the shape of the dose curve; as a rule, active = well fitted inhibition curve with a large enough effect; inconclusive = small, poorly fitted or top-dose-only effect; inactive = no such curve, though single readings can be large or run the other way. Potencies beside an inconclusive call are fits to weak or partial responses and may not hold up.
# Target: Lysine-specific demethylase 5B (Homo sapiens) (UniProt Q9UGL1)
# Chain of UniProt Q9UGL1 (Q9UGL1 whole entry, looked up): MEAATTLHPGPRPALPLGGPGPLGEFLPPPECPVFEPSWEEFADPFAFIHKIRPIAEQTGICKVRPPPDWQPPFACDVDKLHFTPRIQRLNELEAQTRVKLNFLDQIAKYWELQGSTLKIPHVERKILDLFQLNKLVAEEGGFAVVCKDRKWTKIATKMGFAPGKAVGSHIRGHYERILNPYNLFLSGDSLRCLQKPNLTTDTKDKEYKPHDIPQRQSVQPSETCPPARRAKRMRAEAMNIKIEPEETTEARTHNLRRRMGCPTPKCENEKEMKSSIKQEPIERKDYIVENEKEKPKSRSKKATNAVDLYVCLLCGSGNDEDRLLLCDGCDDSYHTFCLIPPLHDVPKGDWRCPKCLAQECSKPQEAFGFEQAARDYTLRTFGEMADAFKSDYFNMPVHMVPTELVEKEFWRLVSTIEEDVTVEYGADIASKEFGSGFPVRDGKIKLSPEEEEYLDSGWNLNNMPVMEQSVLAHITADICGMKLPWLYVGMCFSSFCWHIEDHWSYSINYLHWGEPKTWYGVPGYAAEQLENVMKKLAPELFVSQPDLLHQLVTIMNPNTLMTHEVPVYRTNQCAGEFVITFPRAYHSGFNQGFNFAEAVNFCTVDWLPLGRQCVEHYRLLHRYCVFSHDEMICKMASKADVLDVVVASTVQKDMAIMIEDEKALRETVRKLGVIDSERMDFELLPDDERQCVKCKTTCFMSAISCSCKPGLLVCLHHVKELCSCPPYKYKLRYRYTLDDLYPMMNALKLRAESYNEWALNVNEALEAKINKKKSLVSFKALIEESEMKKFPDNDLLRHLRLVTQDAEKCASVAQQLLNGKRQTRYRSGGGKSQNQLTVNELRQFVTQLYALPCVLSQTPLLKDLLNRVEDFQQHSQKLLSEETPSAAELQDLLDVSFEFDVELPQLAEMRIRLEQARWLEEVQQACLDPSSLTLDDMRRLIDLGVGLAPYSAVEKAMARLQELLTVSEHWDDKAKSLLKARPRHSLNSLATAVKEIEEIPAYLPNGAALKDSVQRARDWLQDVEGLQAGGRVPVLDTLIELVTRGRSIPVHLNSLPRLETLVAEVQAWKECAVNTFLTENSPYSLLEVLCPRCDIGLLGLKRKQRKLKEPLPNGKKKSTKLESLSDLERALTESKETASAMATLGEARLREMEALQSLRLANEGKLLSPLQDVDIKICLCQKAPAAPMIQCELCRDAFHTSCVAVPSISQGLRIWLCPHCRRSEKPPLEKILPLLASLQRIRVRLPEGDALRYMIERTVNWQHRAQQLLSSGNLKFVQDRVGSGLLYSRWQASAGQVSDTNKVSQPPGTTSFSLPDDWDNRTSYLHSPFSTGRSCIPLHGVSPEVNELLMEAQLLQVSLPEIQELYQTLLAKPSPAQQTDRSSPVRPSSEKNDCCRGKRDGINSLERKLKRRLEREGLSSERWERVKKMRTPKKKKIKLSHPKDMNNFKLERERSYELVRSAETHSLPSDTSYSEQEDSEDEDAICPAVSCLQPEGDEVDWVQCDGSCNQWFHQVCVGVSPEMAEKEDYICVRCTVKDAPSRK
# Test: Primary screen for KDM5B Histone Demethylases FDH-coupled qHTS; also: nearly all actives have a fitted effect of over 70% in size; as to activity change, negative = inhibition: 0% is about no effect
# Details: FDH-coupled NADH fluorescence (FDH is formaldehyde dehydrogenase); activity change, negative = inhibition: at 57.7 µM (top of the series) unless noted
# Procedure, shortened: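 Measured: NADH fluorescence change, 30 min, RT. System: KDM5BΔAP 200 nM final, H3K4me3 peptide, α-KG, Fe(II), ascorbate, NAD⁺ plus FDH, pH 7.5 HEPES. Compounds: titrated, 10 min pre-incubation with enzyme.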
# Potency is read from the fitted curve at half-maximal effect; tags tell the direction and shape of the fitted curve.
SMILES,Potency,"activity change, negative = inhibition"
CCOC(=O)c1cc(NCc2c(Cl)cccc2Cl)ccc1N1CCOCC1,"inconclusive: 28.2 µM [inhibitor, single point]",–
O=C(NC1CC1)c1ccc(-c2ccc(N3CCCCC3)nc2)cc1,"inconclusive: 35.5 µM [inhibitor, partial curve, poor fit]",–
O=C(C1CCCN(c2nc3ncccc3o2)C1)N1CCCC1 (stereo not given),active: 25.1 µM,–
c1cncc(Nc2cc3c(cn2)CN(Cc2c[nH]c4ccccc24)CCN3)c1,–,inactive: -14.7% [at 86.2 µM]
CCn1cnc2c1c(=O)n(CC(=O)N(c1ccccc1)C1CCCCC1)c(=O)n2Cc1ccccc1,–,inactive: -2.2%
Cc1cc(C(=O)NC(C)c2cnc(N3CCCCCCC3)nc2C)n[nH]1 (stereo not given),"inconclusive: 31.6 µM [inhibitor, partial curve, poor fit]",–
Cc1c(CC(=O)NC(C)(C)CO)c2c(n1Cc1ccccc1F)CCCC2=O,"inconclusive: 20 µM [inhibitor, partial curve, poor fit]",–
CN(C)c1ccc(CNC(=O)C2CCCN(S(=O)(=O)c3ccc4c(ccn4C)c3)C2)cc1 (stereo not given),"inconclusive: 31.6 µM [inhibitor, single point]",–
CC1(C)CC1(C(=O)N1CCc2c(nc(N)[nH]c2=O)C1)c1cccs1 (stereo not given),"inconclusive: 28.2 µM [inhibitor, partial curve, poor fit]",–
CC(C)(O)C#Cc1ccc(C2NCCS2)cc1 (stereo not given),"inconclusive: 14.1 µM [inhibitor, partial curve, poor fit]",–
COCC1CN(C)CC12CCN(Cc1cccc(OC)c1OC)CC2 (stereo not given),"inconclusive: 28.2 µM [inhibitor, partial curve, poor fit]",–
O=C1NCc2ccccc2CC12CCN(Cc1ccc([N+](=O)[O-])cc1)C2 (stereo not given),"inconclusive: 56.2 µM [inhibitor, partial curve, poor fit]",–
COc1ccc(C(=O)Nc2cc(-c3ccccc3)nn2-c2ccccc2)cc1,"inconclusive: 31.6 µM [inhibitor, single point]",–
O=C(C1CCCN(Cc2cccc(Cl)c2)C1)N1CCCCC1 (stereo not given),"inconclusive: 3.16 µM [inhibitor, full curve, poor fit]",–
Cc1ccc(NC(=O)COc2ccc(-c3nn(C)c(=O)c4ccccc34)cc2)cc1,"inconclusive: 39.8 µM [inhibitor, single point]",–
Cc1ccc(N2CC(c3noc(-c4ccccc4C)n3)CC2=O)cc1 (stereo not given),–,inactive: -25.4%
Cc1cccn2c(CNC3CCC4(CCNCC4)CC3)cnc12,"inconclusive: 17.8 µM [inhibitor, single point]",–
CCOCCCNC(=O)c1cc2c(=O)n(C)c3ccccc3c2n1C,"inconclusive: 17.8 µM [inhibitor, partial curve, poor fit]",–
O=C(Cc1ccc2c(c1)CCC2)Nc1ccc(-c2nccs2)cc1,"inconclusive: 25.1 µM [inhibitor, partial curve, poor fit]",–
O=C(C1CCC(CNS(=O)(=O)c2ccc(Br)s2)CC1)N1CCN(c2ccccc2Cl)CC1 (stereo not given),"inconclusive: 28.2 µM [inhibitor, single point]",–
COc1ccc(NC(=O)Cn2c(=O)n(-c3cccc(C)c3)c(=O)c3c2c2cc(C)ccc2n3C)cc1Cl,"inconclusive: 1.78 µM [inhibitor, partial curve, poor fit]",–
CC(C)[C@H](NC(=O)c1c(F)cccc1F)C(=O)OCc1ccc(C(N)=O)cc1,–,inactive: 19.7%

SMILES,Potency,"activity change, negative = inhibition"
COc1ccc2c(c1)CCc1c-2n[nH]c1C(=O)N1CCc2nc3cc[nH]n3c(=O)c2C1,"inconclusive: 15.8 µM [inhibitor, partial curve, poor fit]",–
CCCCn1nc(C(=O)Nc2ccc3nc(N4CCOCC4)sc3c2)c2ccccc2c1=O,–,inactive: -4.95%
O=C1NC[C@@H](CCC(=O)N2CCCC2)N2C[C@@H](NCc3ccc(F)cc3)C[C@@H]12,"inconclusive: 35.5 µM [inhibitor, partial curve]",–
CS(=O)(=O)N1CCc2cc(C(=O)Nc3ccc(Cl)c(C(F)(F)F)c3)ccc21,"inconclusive: 15.8 µM [inhibitor, partial curve, poor fit]",–
COc1ccc(Cc2nnc(/C=C/c3ccccc3OC)o2)cc1,"inconclusive: 28.2 µM [inhibitor, single point]",–
CCCC(=O)OCc1cc(=O)oc2cc(O)ccc12,"inconclusive: 28.2 µM [inhibitor, partial curve, poor fit]",–
CN1CCN(CCC(=O)Nc2cccc(Br)c2)CC1,"inconclusive: 39.8 µM [inhibitor, partial curve, poor fit]",–
O=C(/C=C/c1ccc(Br)cc1)c1cccc(O)c1,"inconclusive: 25.1 µM [inhibitor, partial curve, poor fit]",–
c1ccc(CCN2CCNc3cc(-c4cn[nH]c4)ncc3C2)cc1,"inconclusive: 35.5 µM [inhibitor, partial curve, poor fit]",–
COc1nc(-c2ccc(OC)c3ncccc23)ncc1F,active: 31.6 µM,–
CC1=C[C@@H](CNS(C)(=O)=O)[C@H](C(C)C)C[C@H]1Cc1nnc(-c2ccccc2F)o1,"inconclusive: 35.5 µM [inhibitor, partial curve]",–
COc1ccc(NC(=O)c2ccc3c(c2)N(C)C2CCCCN2C3=O)cc1 (stereo not given),"inconclusive: 28.2 µM [inhibitor, partial curve, poor fit]",–
Cc1ccc(NC(=O)c2cc(=O)c3ccc(C)c(C)c3o2)cc1C,–,inactive: 9.36%
COc1ccc(C(C)NC(=O)c2cc(-c3ccccc3)cn2C)cc1OC (stereo not given),–,inactive: 6.33%
CC(C)N(C)CCNC(=O)Nc1ccccc1C(F)(F)F,–,inactive: 13.7%
COc1ccc(CN(C(=O)COc2cccc(C)c2C)c2ccccn2)cc1OC,–,inactive: -15.8%
O=C(OCC(=O)c1c[nH]c2ccccc12)c1ccc([N+](=O)[O-])cc1Cl,–,inactive: 41.7%
CCc1ccc(NC(=O)Cn2c(=O)c(CNc3ccccc3)cc3cc(OC)c(OC)cc32)cc1,"inconclusive: 5.01 µM [inhibitor, partial curve, poor fit]",–
N#Cc1ccnc(N2CCN(C(=O)Nc3cccnc3)CC2)c1,"inconclusive: 25.1 µM [inhibitor, single point]",–
CCC(NC(=O)Nc1ccc(OC)c(OC)c1)c1c(-n2cccc2)sc2c1CCN(C)C2 (stereo not given),–,inconclusive: -33.6% [inhibitor]
COc1cccc(NC(=O)N2CCc3nc4cc(-c5ccccc5Cl)[nH]n4c(=O)c3C2)c1,active: 25.1 µM,–
Cc1ccc(-c2cc3c(ccn3C(C)C)c(C(=O)NCc3c(C)cc(C)[nH]c3=O)n2)cn1,"inconclusive: 7.08 µM [inhibitor, partial curve, poor fit]",–

SMILES,Potency,"activity change, negative = inhibition"
NC(=O)Cn1ccc2cc(OCC3CCN(C(=O)C4CC4)CC3)cnc21,active: 35.5 µM,–
COc1nn(C)c2nc(C)c(CCC(=O)NC3CCCC3)c(C)c12,"inconclusive: 12.6 µM [inhibitor, partial curve, poor fit]",–
Cc1ccc(Nc2nc(-c3ccccc3)c(C(=O)Nc3cccnc3)s2)c(C)c1,"inconclusive: 39.8 µM [inhibitor, single point]",–
Cc1cn2nc(C(=O)N3CCC(NC(=O)COc4ccccc4)CC3)cc2c(=O)[nH]1,"inconclusive: 28.2 µM [inhibitor, partial curve, poor fit]",–
COc1ccc2c(C)c(C(=O)N3CCCOC(Cn4cccn4)C3)oc2c1 (stereo not given),"inconclusive: 17.8 µM [inhibitor, partial curve]",–
Cc1cc(-c2nc(-c3c(C)noc3C)cc3cc(C)oc23)ccn1,"inconclusive: 28.2 µM [inhibitor, partial curve, poor fit]",–
CCOc1ccc(CN2CCNC(=O)C2CC(=O)N(C)Cc2nonc2C)cc1 (stereo not given),"inconclusive: 22.4 µM [inhibitor, single point]",–
COc1cccc(CNC(=O)N(C)C2CCc3nn(C)c(=O)n3CC2)c1 (stereo not given),"inconclusive: 35.5 µM [inhibitor, partial curve, poor fit]",–
CCCc1cnc(N2CCN(C(=O)c3c(-c4ccccc4)noc3C)CC2)nc1,"inconclusive: 25.1 µM [inhibitor, partial curve, poor fit]",–
COc1ccc(CNC(=O)c2cc3cn(C(C)C)cc3s2)cc1,"inconclusive: 11.2 µM [inhibitor, partial curve]",–
COC(CNc1nc(-c2ccccn2)nc2c1c(C)nn2C)c1cccs1 (stereo not given),active: 28.2 µM,–
COc1ccc2c(c1)c1c(c(=O)n(-c3cccc(Cl)c3)c(=O)n1CC(=O)NCC1CCCO1)n2C (stereo not given),"inconclusive: 2.51 µM [inhibitor, partial curve, poor fit]",–
CC(C)N1CC[C@H](c2nnc(-c3cccnc3)o2)C1,"inconclusive: 39.8 µM [inhibitor, partial curve]",–
O=C(Nc1ccc2c(c1)CCC2)c1cccc(Br)c1,–,inactive: -7.34%
CCc1nc2ccccc2c(NC(=O)CNC(C)(C)C)c1C,–,inactive: -26.9%
Cc1nn(-c2ccccc2)c(OC(=O)c2ccccc2Cl)c1S(=O)(=O)c1ccccc1,"inconclusive: 17.8 µM [inhibitor, partial curve, poor fit]",–
CC(=O)N(CCC(c1ccco1)C(C)C)Cc1ccc(OC(C)C)cc1 (stereo not given),"inconclusive: 28.2 µM [inhibitor, partial curve, poor fit]",–
O=C(Nc1ccc(F)cc1)c1nnc(CSCC(=O)N2CCN(c3ccccc3)CC2)s1,–,inactive: -3.37%
O=C(NNC(=O)C1CCC1)c1ccccc1,–,inactive: 26.8%
Cn1c(Sc2ncnc3scc(-c4ccccc4)c23)nnc1-c1ccccc1F,–,inactive: -2.33%
Cc1cccc(C)c1NC(=O)CCCn1c(=O)c2cccn2c2ccccc21,"inconclusive: 44.7 µM [inhibitor, single point]",–
